According to the RNAGym collection of RNA variant scans (doi:10.7554/elife.90254):
Read counts are not given, so values of variants with three or more changes are uncertain.

B1: OR4K15 (parent)
chain: GUUAACGGUCAUAGGCCAUGGAAACUAGGAGCACCAUUUCGCUGCCAGUGAAGAAAUGAACAAAGAAAAUCUGGGCCAGGCAGGCAUCAAAAGAAAUAGUCUUGCGCUCAACCAGAAAGUCUGUAAUCAUUUUAAGGGUA

Variants of: B1
Experiment: self-cleavage, relative activity (ratio to wild type); higher = more cleavage; in vitro, sequencing; the parent is a self-cleaving ribozyme

Row | Variant | self-cleavage
1 | U19A G44A A118G U130C | 0.76
2 | U19A G53U A89G | 1.51
3 | U19A G73A U108C | 0.01
4 | U19A G79A C105G | 0.01
5 | U19A U37C A63U | 1.42
6 | U19A U38A G58U A63G | 1.65
7 | U19A U43A A47G A118G | 0.42
8 | U19A U43C A62U A135C | 1.06
9 | U19A U43C A68C A116G | 0.42
10 | U19A U49A A91G U120C | 0.49
11 | U19A U49C A59G | 1.28
12 | U19A U49C A62G | 1.15
13 | U19A U49C A68G A86U U120C | 0.56
14 | U19A U72C A114U U131C | 0.01
15 | U19A U87A A89G A94G | 0.34
16 | U19A U102A U103A | 0.04
17 | U19A U102C A125G | 0.99
18 | U19A U108C A116G A118G | 0.01
19 | U19C A22G A24G U37C | 0.51
20 | U19C A22G A27G A63G A98G U100C A111U | 0.36
21 | U19C A22G A30G U122A A129C | 0.9
22 | U19C A22G A33U U102C A114U | 0.02
23 | U19C A22G A36G U70C A116G A117G A126G | 0.12
24 | U19C A22G A67G G74A | 0.13

Row | Variant | self-cleavage
25 | U19C A22G U38C U100C | 1.32
26 | U19C A22G U57C U127G | 0.52
27 | U19C A22U A27G A55G U100C U122C | 1.48
28 | U19C A22U A89C C101U | 0.21
29 | U19C A23G A89U A135U | 1.1
30 | U19C A23G A118G | 0.54
31 | U19C A23G C25G A55C A90G A110G A116G U139C | 0.01
32 | U19C A23G G58U | 1.02
33 | U19C A23G U43C A52G A55G A63G U132G | 1.28
34 | U19C A24C A117G | 0.65
35 | U19C A24G A47G A54G | 0.66
36 | U19C A24G A60G U131C U139C | 1.03
37 | U19C A24G A64G | 0.78
38 | U19C A24U U37C A56G U102C U122C U130C | 0.93
39 | U19C A24U U102C A118G | 1.34
40 | U19C A27G A30G G48U U102C U132C | 0.75
41 | U19C A27G A96G A118G | 1.02
42 | U19C A30G A47U A92G A96C | 0.21
43 | U19C A30G A66U U131C | 1.44
44 | U19C A30G A67G A90G | 0.73
45 | U19C A30G U37C U49A A59G U103C A134U | 0.42
46 | U19C A30U G104A U108A A110G | 0.01
47 | U19C A33G A62G A90U A118G | 0.37
48 | U19C A33G A69G U87C | 0.59

Row | Variant | self-cleavage
49 | U19C A33G A86G | 0.69
50 | U19C A33G U57C A67U A82G | 0.42
51 | U19C A33G U130C | 0.75
52 | U19C A36C A66G U132C | 2.07
53 | U19C A36G A55G A62U U103C | 1.22
54 | U19C A36U A52G A67U | 0.89
55 | U19C A36U A55G A64G A68G A90G U127A | 1.15
56 | U19C A47C A62G U108C | 0.02
57 | U19C A47G A52U U87C | 0.98
58 | U19C A47G A55G | 1.48
59 | U19C A51C G75A A94G A110G | 0.02
60 | U19C A51G G74A C113U | 0.05
61 | U19C A51G U57G U127G | 0
62 | U19C A51G U70C | 0.76
63 | U19C A51U A67G A90G | 0.38
64 | U19C A51U U70A A82G A111G U120C | 0.02
65 | U19C A52G A59U | 1.36
66 | U19C A52G A60G A69G | 1.69
67 | U19C A52G U132C | 1.37
68 | U19C A52U A94G | 0.82
69 | U19C A52U G58U A82U A116G | 0.07
70 | U19C A54G A92G | 0.9
71 | U19C A54G A94G | 1.03
72 | U19C A54G U87C A95G U100C U131C | 1.03

Row | Variant | self-cleavage
73 | U19C A55G A56U U132C | 0.92
74 | U19C A55G A90G | 1.22
75 | U19C A55G G58U A59U U122C U130C | 0.58
76 | U19C A55G U122C | 2.05
77 | U19C A56G A117G | 0.21
78 | U19C A59G A91G | 1.35
79 | U19C A59G A134U | 1.81
80 | U19C A59G U139C | 0.73
81 | U19C A59U A92G | 2.03
82 | U19C A59U G65A U70A | 1.11
83 | U19C A60G A66G A90G U120A U132C | 0.3
84 | U19C A60G A95G | 1.44
85 | U19C A62G A129G | 1.14
86 | U19C A62G U70C U102C | 1.33
87 | U19C A64G A96U U122C | 1.48
88 | U19C A64G C77A A126G | 0.72
89 | U19C A64G U102C G106A | 0.02
90 | U19C A64U A67G | 0.99
91 | U19C A66G A94G | 1.9
92 | U19C A66U A69G A98G U108A U124A | 0.02
93 | U19C A67G A116G | 0.41
94 | U19C A68G A69G | 1.15
95 | U19C A68G A110G | 0.22
96 | U19C A68G C77U A82G | 1.29

Row | Variant | self-cleavage
97 | U19C A78G G106A A129C U133C | 0
98 | U19C A82U A86G U108C A114U U133C | 0.01
99 | U19C A86G C112G U124C | 0.02
100 | U19C A86G U131C | 0.88
101 | U19C A89G A90U | 1.34
102 | U19C A89U A92G U100C A117G U120C | 0.6
103 | U19C A90G A92G U127A | 1.21
104 | U19C A94G A114G | 0.24
105 | U19C A95U A125U | 1.38
106 | U19C A110U A111G | 0.01
107 | U19C A111G G115U A129G | 0
108 | U19C A117G A126G U131C | 1.22
109 | U19C C32U G115U A140U | 0.1
110 | U19C C35U A56C A82G U108A A116G A118G U139A A140U | 0
111 | U19C C40A A55G | 1.14
112 | U19C G20A A51G A78C A111G | 0.04
113 | U19C G20A A64G A140U | 0.89
114 | U19C G20A G73A | 0.13
115 | U19C G21A A52G A66G A118G | 1.84
116 | U19C G21U A96G U120C | 1.01
117 | U19C G29A A30C A51G A118U U122C | 0.54
118 | U19C G29A A68G | 1.16
119 | U19C G75A A82G A114G U130C | 0.02
120 | U19C G83A A86U A117G | 2.85

Row | Variant | self-cleavage
121 | U19C G93A A114G | 0.55
122 | U19C U26A A47G A59G A62G A116G | 0.53
123 | U19C U26A U43A C71U U108C U132C | 0.02
124 | U19C U37A A86U A89G A126G | 1.16
125 | U19C U37C U72A | 0.12
126 | U19C U38C U39C A78G U102C | 0.48
127 | U19C U39A A62G G74A A89G A117G U122C | 0.06
128 | U19C U39A A116C | 0.16
129 | U19C U39A C46U A51G A82U U131C | 0.22
130 | U19C U39C G50A U72C A111G | 0
131 | U19C U39C U49C A95G | 1.61
132 | U19C U39C U72A U108C | 0.01
133 | U19C U39C U102C | 0.77
134 | U19C U43A A86G A98G A126G | 0.2
135 | U19C U43A U57C A62U A69G G75A U100C | 0.2
136 | U19C U43A U57G A116G U127C | 0.37
137 | U19C U43C A82U | 0.33
138 | U19C U43C A118G U130C | 0.91
139 | U19C U43C U87C U124C | 0.86
140 | U19C U43C U127C | 0.06
141 | U19C U43G A51G A78G A86G U87C U132C | 0.09
142 | U19C U49A A92G A135G | 0.37
143 | U19C U49A U57C A95G A129G U131C A134G | 1.61
144 | U19C U49C A56G | 0.95

Row | Variant | self-cleavage
145 | U19C U49C A116G G119A | 0.16
146 | U19C U49C U57C A89U C105A | 0.01
147 | U19C U49C U102C | 2.26
148 | U19C U57C U102C | 1.87
149 | U19C U57C U124A U133C | 0.46
150 | U19C U70A A110C G137A | 0.29
151 | U19C U70C U108C A111G | 0.01
152 | U19C U72C U122C | 0.18
153 | U19C U72C U132C | 0.09
154 | U19C U87A A95G | 2.17
155 | U19C U87A U102C | 2.38
156 | U19C U87C A96G | 1.75
157 | U19C U87C A110G A111U | 0.04
158 | U19C U87C U108A A117G | 0
159 | U19C U102C A110G | 0.25
160 | U19C U102C A116U | 0.56
161 | U19C U102C A117G | 2.16
162 | U19C U103A A111U U132A | 0.03
163 | U19C U103C U124C | 0.42
164 | U19C U120A U130C | 0.52
165 | U19G A27G A95G | 1.75
166 | U19G A54U U124A | 0.6
167 | U19G A86U A114U | 0.07
